The values that follow come from PubChem BioAssay AID1918957 (Molecular Pharmacology Branch, DTP, NCI, 2023).

Each structure is given as a SMILES string. For part of its entries the source gives two or more results. The list is limited to them. The source may hold further records. Values that stand side by side repeat one measurement across runs, samples, wells, individuals or studies. Additions like (4×) stand for listed records that agree.

This test concerns NCI-H1876 complex spheroid viability. Briefly: Anticancer human tumor NCI-H1876 cell line growth inhibition [LSD1].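 Note: spheroids exposed to compounds for one week before readout; 100% = DMSO vehicle-treated spheroids so lower means fewer viable cells.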 The note with it: stronger effect = lower value. From the text:
Multicellular complex tumor spheroid response to LSD1 Inhibitor Iadademstat in combination with a variety of drugs and investigational agents in selected tumor cell lines
The current study was undertaken to assess response to LSD1 inhibitors in combination with standard-of-care drugs and investigational agents in solid tumor complex spheroid models as well as in the K-562 leukemia. Complex spheroids include a stromal component modeled by human endothelial cells (HUVEC) and fibroblasts modeled by human mesenchymal stem cells (MSCs). The concentration ranges selected for each drug and investigational agent were based upon clinically achievable concentrations if the clinical Cmax of the agent was known.
Compounds. The drugs and investigational agents used in this study are listed on Table 1. All of the agents used, including staurosporine (NSC755774) and gemcitabine (NSC613327), were obtained from the Developmental Therapeutics Program, NCI. FDA-approved anticancer drugs are available from the NCI at http://dtp.nci.nih.gov/branches/dscb/oncology_drugset_explanation.html. Drugs and investigational agents were >95% pure by proton nuclear magnetic resonance (NMR) and liquid chromatography/mass spectrometry (LC/MS). Stock solutions were prepared at 400x in DMSO, stored at -70 degrees C, and diluted in fresh medium prior to their use. The final concentration of DMSO in cell culture wells never exceeded 0.25% (v/v). The FDA-approved anticancer drug set is available from the Developmental Therapeutics Program at https://dtp.cancer.gov/organization/dscb/obtaining/available_plates.htm. All drugs and investigational agents were tested over a range starting from a high concentration at or near the clinical Cmax and decreasing in half-log increments. If the clinical Cmax for an agent had not been determined, the highest concentration tested was 10 microM.
Cell Lines. The patient-derived cancer cell (PDC) lines: 292921-168-R-J2-PDC, K24384-001-R-PDC, and 521955-158-R2-J5-PDC pancreatic carcinomas, 556581-035-R-J1 ovarian carcinoma, 324938-238-R-J1-PDC, 855422-203-R-J1-PDC and 883617-216-R-J1-PDC urothelial bladder carcinomas, 743489-274-T-PDC renal cell carcinoma, 138582-R-J1 Merkel cell tumor, K60290-347-R-J1 and K57222-313-R-J1-PDC glioblastomas, 653999-131-R-J2-PDC, LG0703-F948-PDC, and 349418-098-R-PDC non-small cell lung carcinomas, 885512-296-R-J2-PDC, 171881-019-R-J1-PDC breast carcinomas and 186277-243-T-J2-PDC and 233499-124-R-J2-PDC colon carcinomas were obtained from the NCI Patient-Derived Models Repository (PDMR, https://pdmr.cancer.gov). The established cell lines NCI/ADR-RES (RRID:CVCL_14520 and OVCAR-5 (RRID:CVCL_1628) ovarian carcinomas, 786-O (RRID:CVCL_1051) and A498 (RRID:CVCL_A498) renal cell carcinoma, NCI-H211 (ATCC, cat. CRL-5824; RRID:CVCL_1529), NCI-H196 (ATCC, cat. CRL-5823, RRID:CVCL_1509), SW 1271 (ATCC, cat. CRL-2177, RRID:CVCL_1716) and NCI-H1876 (ATCC, cat. CRL-5902, RRID:CVCL_1503) small cell lung carcinomas, MDA-MB-231 (RRID:CVCL_0062) and MDA-MB-468 (RRID:CVCL_0419)breast carcinomas (10-12). Pooled donor human umbilical vein endothelial cells (HUVEC, Lonza, cat. CC-2519) and human mesenchymal stem cells (hMSC, Lonza, cat. PT-2501) were purchased from Lonza (Walkersville, MD).
Cell Culture. All cells were maintained in an incubator at 37 degrees C and 5% CO2 with 95% humidity. The PDC lines were cultured according to standard operating procedures established by the NCI PDMR (https://pdmr.cancer.gov). […]

On to `NC1CC1c1ccc(-c2cccc(O)c2)cc1` (stereo not given), for which the viability, T/C by setting is: (compound alone 0.316 µM) 93, 106, 105 (4×), 94.2, 109 (2×), 101, 93.9, 115, 110, 113, 111, 102, 90, 100, 107, 118, 96, 95.2, 95.1, 93.2%; (compound alone 1 µM) 100, 106 (4×), 94.6, 103, 107 (3×), 105 (2×), 111 (2×), 101, 104, 115 (3×), 122, 112 (2×), 97.7, 102, 99.8%; (compound alone 3.16 µM) 104 (2×), 112 (2×), 116, 95.6, 102 (2×), 105 (3×), 109, 98.6, 90.1, 113, 100, 114, 107, 91.6, 106, 110, 97.3, 101 (2×), 99.4%; (compound alone 10 µM) 91.5, 104 (4×), 93.9, 103 (3×), 96.9, 99.7, 100, 79.3, 111, 97, 106, 108, 116, 114, 107, 109, 98.8, 94.6, 89.8, 90.2%.

Take `NC1CCC(NC2CC2c2ccccc2)CC1` (stereo not given): for the setting “compound alone 0.1 µM”, the viability, T/C was 104 (4×), 103, 105 (2×), 102 (2×), 107 (2×), 121, 95.7, 111, 99.8, 108 (2×), 97.9, 93.5, 98.9, 117, 112, 109, 98.1, 92.1%.
